Results on 56 compounds are retold here after ChEMBL document CHEMBL4888484, “Replenishing the malaria drug discovery pipeline: Screening and hit evaluation of the MMV Hit Generation Library 1 (HGL1) against asexual blood stage Plasmodium falciparum ,using a nano luciferase reporter read-out” (2022).

Molecules are shown by their SMILES. The campaign covered roughly 150,000 compounds. About 540 (0.36%) showed an effect of 50% or more. The list shows a part of the results.

For orientation: % Inhibition means the change of the read-out against control, counted positive when it falls.

This assay deals with Plasmodium falciparum. Description: Primary screen in NF54 nanoGlo assay, in single point, at 2uM, 72h; a lower Z score goes with more inhibition. The assay is classed as functional, Erythrocyte. The following applies: timepoint 72 hour.
For `O=C1CN(C(=O)NCC(F)(F)c2ccccc2)C2CCCCC2N1` (configuration not stated), the “% Inhibition” value is -9% and the Z score was 1.2.
As for `COC(=O)c1ccc(C(=O)N2CCC(N3CC[C@H](OC)C3)CC2)cc1`, the “% Inhibition” value is on record as -11% and the Z score is reported as 1.35.
In the case of `C[C@H]1CN(C(=O)NCC2(C(F)(F)F)CCC2)CC(=O)N1`, the “% Inhibition” value is reported as -5% and the Z score amounted to 0.7.
The matching figures for `CCOC(=O)C1CCC(CN(Cc2c(Cl)cccc2Cl)S(=O)(=O)c2ccc(C)cc2)CC1` (configuration not stated): 19% and -2.53.
The matching figures for `O=C(NCCc1ccco1)c1cc(=O)c2cccc(F)c2[nH]1`: -8% and 1.1.
The matching figures for `Cc1nc(C)c([C@H](C)NC(=O)Nc2cc(Br)ccc2N2CCOCC2)s1`: 0% and 0.05.
`Cc1nn(C)c(C(=O)NCC[C@H]2CCOC2)c1Cl`: the “% Inhibition” value is on record as -5% and the Z score was determined as 0.85.
The matching figures for `CCS(=O)(=O)N1CCC(CNC(=O)c2cnc3ccccn3c2=O)CC1`: -4% and 0.52.
In the case of `CN(C)C(=O)N1CCc2[nH]nc(-c3cccc4c3OC(F)(F)O4)c2C1`, the “% Inhibition” value is -11% and the Z score is given as 1.72.
The matching figures for `CN1CCN(Cc2nc(-c3ccco3)no2)CC1`: -3% and 0.43.
With `Cc1nc(O)cc(CNC(=O)c2nc(C(C)C)cs2)n1`, the “% Inhibition” value came out at 9% and the Z score was -0.82.
Consider `CCc1n[nH]cc1C(=O)NCc1cc2c(nc1OC)CN(C1CCCC1)C2=O`, for which the “% Inhibition” value was 10% and the Z score is listed as -1.32.
The matching figures for `CCOc1ccccc1N1CCN(c2ncc3c(=O)n(C4CCCC4)c(=O)[nH]c3n2)CC1`: -2% and 0.27.
In the case of `Cc1ccccc1C1CC1C(=O)N1CCNC(C)C1` (configuration not stated), the “% Inhibition” value amounted to 0% and the Z score is reported as -0.06.
The matching figures for `Cc1cc2c(cc1C(=O)NCCc1nc3ccccc3c(=O)[nH]1)OCCO2`: -2% and 0.14.
For the compound `CC1(C)COCCN1C(=O)C1=CCCC1`, the “% Inhibition” value was -9% and the Z score came to 0.93.
The matching figures for `COC[C@H](C)NC(=O)c1c(CCc2ccccc2)n(CCN(C)C)c(C)cc1=O`: 1% and -0.07.
The matching figures for `O=S(=O)(NC(Cc1ccccc1)[C@H]1C[C@H](O)C1)N1CCCC1` (some centres not stated): -3% and 0.73.
The matching figures for `COC(=O)C(c1cccc(C#N)c1)N1CCCC(c2ncc[nH]2)C1` (configuration not stated): -3% and 0.39.
As for `COC1CCCCC1NC(=O)COCc1ccnn1C` (configuration not stated), the “% Inhibition” value is recorded as -5% and the Z score worked out at 0.6.
Consider `CCn1c(C)cc2[nH]nc(NC(=O)c3cc(C4CC4)nn3C)c2c1=O`, for which the “% Inhibition” value was -2% and the Z score amounted to 0.28.
Consider `O=C(c1cccc(-c2ccnc3ccccc23)c1)N1CCN2CCC[C@H]2C1`, for which the “% Inhibition” value is listed as -3% and the Z score is reported as 0.39.
The matching figures for `CN(C(=O)COc1ccc(Cl)cc1C(N)=O)C1=CCCC1`: 3% and -0.5.
The matching figures for `Cn1cccc(C(=O)N2CCN(c3cnsn3)CC2)c1=O`: -12% and 1.56.
The matching figures for `c1ccc(N2CCN(C3CCN(C[C@H]4CCCCO4)CC3)CC2)cc1`: -6% and 0.77.
With `O=C(CCc1nc(-c2cc3ccccc3nc2O)no1)NCc1ccccc1`, the “% Inhibition” value is -21% and the Z score stood at 4.01.
Consider `OC[C@H](CNc1ncnc2nc[nH]c12)Cc1ccccn1`, for which the “% Inhibition” value is given as -2% and the Z score turned out to be 0.37.
Turning to `CC(C)CCNC(=O)c1ccc(-c2nc3cccnc3n2C2CCCCC2)cc1`, the “% Inhibition” value is -19% and the Z score is recorded as 2.54.
The matching figures for `O=C(Nc1ccn(CC(F)F)n1)N1CCC[C@H](C2CCOCC2)C1`: -4% and 0.73.
The matching figures for `CC(C)c1nnc(CN2CCc3nocc3C2)o1`: 4% and -0.38.
On to `Cc1ccc(-n2nc(-c3nc(-c4ccccc4C)no3)c3ccccc3c2=O)cc1C`, for which the “% Inhibition” value is -14% and the Z score is 1.78.
The matching figures for `Cc1noc(C)c1[C@H]1NCCn2cccc21`: 12% and -1.57.
Regarding `c1ccc(C(CN2C[C@@H]3NCCO[C@H]3C2)c2ccccc2)cc1`, the “% Inhibition” value is 12% and the Z score was -1.63.
Turning to `COc1cccc(C(=O)N(Cc2nccs2)C2CC2)c1O`, the “% Inhibition” value is listed as 2% and the Z score is reported as -0.47.
Take `O=C(CN1CCC[C@H](Cn2cncn2)C1)NCc1ccccn1`: the “% Inhibition” value came out at 9% and the Z score is given as -1.23.
On to `CCC(CC)C(=O)NC[C@](C)(O)c1cnn(C)c1`, for which the “% Inhibition” value was -5% and the Z score is reported as 0.83.
Regarding `COc1ccccc1Nc1nc(N)nc(Cn2cnc3ccccc3c2=O)n1`, the “% Inhibition” value is on record as -11% and the Z score was found to be 1.6.
The matching figures for `C[C@@H](CCC(C)(C)C)NC(=O)c1nnc(C(C)(C)S(C)(=O)=O)o1`: -4% and 0.55.
`O=C(c1nc2ccccn2c1F)N(Cc1ccsc1)C1CCCC1`: the “% Inhibition” value is -16% and the Z score amounted to 1.68.
The matching figures for `O=C(CN1CCCCCC1)Nc1cccc(-c2cnc[nH]2)c1`: -1% and 0.15.
The matching figures for `Cc1cccc(NC(=O)N2CCC(n3cnc4c(Cl)cccc4c3=O)CC2)c1`: 2% and -0.28.
The matching figures for `CCS(=O)(=O)NCCc1ncc(C)n1C1CCC1`: 5% and -0.76.
Regarding `CN(C(=O)Nc1ccc(F)cn1)[C@H]1CC(C)(C)OC1=O`, the “% Inhibition” value was -4% and the Z score is on record as 0.57.
The matching figures for `C[C@H]1CC(=O)NCCN1c1ncnc2ccsc12`: -10% and 1.42.
For the compound `Cc1cc(C(=O)CN2C(=O)C(=O)N(C3CCCCC3)C2=O)c(C)[nH]1`, the “% Inhibition” value was -1% and the Z score amounted to 0.26.
In the case of `O=C(NCCc1ccc(N2CCCC2)cc1)C(=O)NCc1ccc(Cl)cc1`, the “% Inhibition” value is recorded as -6% and the Z score stood at 1.06.
In the case of `COc1cc(=O)c(C(=O)NCCN2CCCCC2)nn1-c1ccc(F)cc1`, the “% Inhibition” value worked out at 40% and the Z score is -5.73.
`COC(=O)c1cccc(NCc2cc(C#N)n(C)c2C)c1`: the “% Inhibition” value is on record as -14% and the Z score was determined as 2.21.
The matching figures for `Nc1nnc([C@H]2CC(=O)N(c3ccc(OC(F)(F)F)cc3)C2)o1`: -4% and 0.41.
Consider `COCCNC(=O)N[C@@H](Cc1ccccc1)C1CC1`, for which the “% Inhibition” value is recorded as 2% and the Z score was -0.26.
The matching figures for `FC(F)(F)C1CCC(CNc2nc(C3CC3)ns2)CC1` (configuration not stated): -16% and 2.95.
As to `CC[C@H](C)NCCOCCOc1ccc(C(C)(C)C)cc1`, the “% Inhibition” value is 9% and the Z score is -1.2.
The matching figures for `CC(C)c1nc([C@@H]2CCCCCN2CC(N)=O)no1`: -3% and 0.38.
In the case of `N[C@H]1C[C@@H](c2nc(Cc3c(F)cccc3F)no2)[C@@H]2C[C@@H]21`, the “% Inhibition” value is reported as -9% and the Z score is 1.37.
Take `CC(C)[C@H](Cn1cncn1)NC(=O)c1ccoc1`: the “% Inhibition” value is 12% and the Z score is on record as -1.56.
Consider `CCS(=O)(=O)NC[C@@H](c1ccc(Cl)cc1)n1ccnc1`, for which the “% Inhibition” value is given as 6% and the Z score was -0.75.
